# Test results taken from paper PMC7819943, “Rice protein-binding microarrays: a tool to detect cis-acting elements near promoter regions in rice”.
# This is one part of the list.
# Target: T1, OsWOX13 (Oryza sativa, UniProt Q5QMM3 1-267)
# T1 sequence: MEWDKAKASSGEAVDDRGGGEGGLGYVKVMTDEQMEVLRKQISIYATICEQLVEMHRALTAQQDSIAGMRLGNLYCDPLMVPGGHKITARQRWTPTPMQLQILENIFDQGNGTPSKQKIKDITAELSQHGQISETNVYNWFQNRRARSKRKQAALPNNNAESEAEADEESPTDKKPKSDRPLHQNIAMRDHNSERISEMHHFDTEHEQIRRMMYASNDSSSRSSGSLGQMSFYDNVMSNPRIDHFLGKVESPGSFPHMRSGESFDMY
# Test: protein-binding microarray (RPBM); PBS, 2% BSA, 51.3 ng/ul salmon testes DNA, 50 uM zinc acetate, 200 nM TF, 25 C, 1 h; high values mean tight binding
# Settings: protein: recombinant; tags: N-terminal polyhistidine and DsRed monomer fusion (pET32a); label: CyDye5-dUTP incorporated in the synthesized complementary strand; 3' TTTTT single-stranded linker to array surface; dsDNA, one strand shown
# In short: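 Transcription factors were made in E. coli BL21-CodonPlus as N-terminal fusions to a polyhistidine tag and DsRed, then purified on Ni–NTA. After primer extension with Cy5-dUTP and blocking with 2% BSA, a custom Agilent array was exposed for 1 h at 25 °C to 200 nM protein in PBS, 2% BSA, salmon testes DNA and 50 µM zinc acetate. Washed arrays were scanned on an Axon 4000B, and the binding signal is per-feature fluorescence intensity in arbitrary units.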
row,Sequence,binding signal
1,CATCTCAGTTAATAATTAATGTGCTTTAGGTTACGTATCACGGAGTCACCTAGTGCAG,11900 fluorescence intensity (a.u.)
2,GAAGTACTAAATTAGTATTGAACAGATGTATTGCACCATACGGAGTCACCTAGTGCAG,6680 fluorescence intensity (a.u.)
3,AGCAAATGATGATATGTCAAAGAACAAACTCCAAAGTGCGCGGAGTCACCTAGTGCAG,6390 fluorescence intensity (a.u.)
4,CGTTGACGAATTCAGCCCACATCTGAATTTGGCCTACCCACGGAGTCACCTAGTGCAG,6680 fluorescence intensity (a.u.)
5,TATTACAGTACGTTAACAAAGATTAAACTGAATCTACAATCGGAGTCACCTAGTGCAG,3210 fluorescence intensity (a.u.)
6,GTTCAAAAGATAATTGTGCTGTTTATTGTCCTTTCAGGTTCGGAGTCACCTAGTGCAG,4650 fluorescence intensity (a.u.)
7,TTGTAGATTTGTAGATGTTACTCTTACATGACTCCTTCCTCGGAGTCACCTAGTGCAG,4330 fluorescence intensity (a.u.)
8,TGTTAAATGATTTGTTTTCATGCGAAAACATTTTATATGGCGGAGTCACCTAGTGCAG,45400 fluorescence intensity (a.u.)
9,TCTTACTTAATAGCACTAATCTCAAAGTCAATCTAATGGACGGAGTCACCTAGTGCAG,3950 fluorescence intensity (a.u.)
10,TTTAATTGGAGCCTTCGAGGGTAGTCGAGTCAGTCACTTGCGGAGTCACCTAGTGCAG,27000 fluorescence intensity (a.u.)
11,GTTTTATTCTGATTAAATTAAATGCCACAGGGACATTGTCCGGAGTCACCTAGTGCAG,9600 fluorescence intensity (a.u.)
12,TCTGATGTTGCCTTAACTGCATAGCCTGCTTATATGATGGCGGAGTCACCTAGTGCAG,4900 fluorescence intensity (a.u.)
13,CCCTTAAAATCACAAATTAAATTTTGGATAACCCAAAAGCCGGAGTCACCTAGTGCAG,9230 fluorescence intensity (a.u.)
14,ATAATTTATGTGTGACTATCTATCTATCTTTATCTATCTACGGAGTCACCTAGTGCAG,7530 fluorescence intensity (a.u.)
15,GCTTAATTGAAGGAGCCATGGCAGCTGTCCTCTCCCGCCGCGGAGTCACCTAGTGCAG,53200 fluorescence intensity (a.u.)
16,TCACTATAATTTTGGTCAAATTCAACTATATGCTGGGACACGGAGTCACCTAGTGCAG,7080 fluorescence intensity (a.u.)
17,TGCCATTAACAATCACATAATTCCAAGAAATGCTATCAACCGGAGTCACCTAGTGCAG,8190 fluorescence intensity (a.u.)
18,GAGAGATTGAGTTTTAAATTGAACGTTATGGAAGGATGGACGGAGTCACCTAGTGCAG,33700 fluorescence intensity (a.u.)
19,ATAGTCAATTTAATACTAGTTAAATCATACAATAGTTACCCGGAGTCACCTAGTGCAG,12800 fluorescence intensity (a.u.)
20,GCTTCCTTTGATTTGTAGAGAAAACGAAGAAAGCAATAGGCGGAGTCACCTAGTGCAG,8870 fluorescence intensity (a.u.)
21,TGGCTTTTATGATTGCCACACCTCAACCGGAATATATGCTCGGAGTCACCTAGTGCAG,9330 fluorescence intensity (a.u.)
22,TGAAAATTTCAATCCTTTCTTGTCAGCATAGTTCTTTCTGCGGAGTCACCTAGTGCAG,12400 fluorescence intensity (a.u.)
23,TCAAACTTAATTTTGAAGTTTATTTTAAGATATTTTCAACCGGAGTCACCTAGTGCAG,5390 fluorescence intensity (a.u.)
24,CACTATAAATTATCACCACCTCATTCCCGCCATGTCTCACCGGAGTCACCTAGTGCAG,10200 fluorescence intensity (a.u.)
25,AATTTTAATTATCTCTAAATTGTATTCCTATATGGACTCTCGGAGTCACCTAGTGCAG,24700 fluorescence intensity (a.u.)
26,TTGAACTGCCCATAATCATTTATAAATTTAAACTTCTTGACGGAGTCACCTAGTGCAG,4440 fluorescence intensity (a.u.)
27,CCCCGGCTGATTAATCTGCCACTTATTACTATCACTGATTCGGAGTCACCTAGTGCAG,13200 fluorescence intensity (a.u.)

row,Sequence,binding signal
1,TTGACAGAATGACAGGCTTTATCAGCCACACATATACATACGGAGTCACCTAGTGCAG,12400 fluorescence intensity (a.u.)
2,CCAGTTGAATCAATACATTGATTATTACTACCTCCATATTCGGAGTCACCTAGTGCAG,5530 fluorescence intensity (a.u.)
3,ATAAACCGCACCCAAAATTTAAATTTTAAAGCATAGTTATCGGAGTCACCTAGTGCAG,3520 fluorescence intensity (a.u.)
4,ATAATAGATGAGATGAGAAGAGATACCATCTCTAGTAATCCGGAGTCACCTAGTGCAG,9020 fluorescence intensity (a.u.)
5,AGCCTAATTAATTTGTCATTAGCAAATGTTTACTGTAGCACGGAGTCACCTAGTGCAG,57000 fluorescence intensity (a.u.)
6,TCCATGATTTGTCACGTGGGTGTTCAGTGCTATAGCTCCTCGGAGTCACCTAGTGCAG,27600 fluorescence intensity (a.u.)
7,AACAAATGATGAAATTGCTAACACCTAGATGGCCATGTTCCGGAGTCACCTAGTGCAG,8590 fluorescence intensity (a.u.)
8,GAACATTTCTTCTCTCCAATCAAATGTACGGACGGCTAAACGGAGTCACCTAGTGCAG,3260 fluorescence intensity (a.u.)
9,CCATGTTTACAAAATAAATTAACATAGCACATAATTTCATCGGAGTCACCTAGTGCAG,4240 fluorescence intensity (a.u.)
10,TGCCTAATTGGTTTCCCAGCCTTGACGAGCTTCCTCGAGTCGGAGTCACCTAGTGCAG,42600 fluorescence intensity (a.u.)
11,TTCTGATTAACTGTCTGCTACTCTTGAAAGCTGCACTCGACGGAGTCACCTAGTGCAG,34200 fluorescence intensity (a.u.)
12,TTGCCATCATAATCAATTGTGATCCTTCTCTGTATCCCTACGGAGTCACCTAGTGCAG,4630 fluorescence intensity (a.u.)
13,TTAAATTTAAATTTGAGATTGATTTTGAGATATTTTCAACCGGAGTCACCTAGTGCAG,38200 fluorescence intensity (a.u.)
14,GTGATTAATAGGTATCAGAAAAGAGCAGCCAAATTTGCACCGGAGTCACCTAGTGCAG,19200 fluorescence intensity (a.u.)
15,CCAAATTAACATGTAGTAGTAGACCGGCTTCGCCCTCGCCCGGAGTCACCTAGTGCAG,33900 fluorescence intensity (a.u.)
16,ATTAATTAATAATTACAAGCTGATCCACGTCGCCGGCCTACGGAGTCACCTAGTGCAG,42000 fluorescence intensity (a.u.)
17,TCACGCTTACTCGAGTCATCAATCATCTACTACACCCCACCGGAGTCACCTAGTGCAG,5350 fluorescence intensity (a.u.)
18,ATTAATCTATAATTAGAGAATGTTTACTATAGCATCACATCGGAGTCACCTAGTGCAG,23500 fluorescence intensity (a.u.)
19,TAACAATCATTTGAACCATACGCTATTTCGCTGCTGTATGCGGAGTCACCTAGTGCAG,3930 fluorescence intensity (a.u.)
20,TGCAGAGATTGAATAATTTGATGTTCCATATTGTAACTACCGGAGTCACCTAGTGCAG,35200 fluorescence intensity (a.u.)
21,GCGAAATTACAATGAAATCCTCCCACCTCAGAAACTGATCCGGAGTCACCTAGTGCAG,3830 fluorescence intensity (a.u.)
22,CCCACCTAATTTCCTTCTGTTTCAAGAAACATTATGGTCACGGAGTCACCTAGTGCAG,6230 fluorescence intensity (a.u.)
23,AACATAATTAGGCTCAAAAGATTCGTCTCACAATTTACATCGGAGTCACCTAGTGCAG,11700 fluorescence intensity (a.u.)
24,ACATTAATGATTAGAGACCATATTGTCATCAACTATTGTACGGAGTCACCTAGTGCAG,30800 fluorescence intensity (a.u.)
25,GGCGTAATTAGGCTTAAAAGATTCGTCAGGCAATTTACCCCGGAGTCACCTAGTGCAG,24600 fluorescence intensity (a.u.)
26,GAATTGGATTGAGAATTCTTCTCTTCTCTCCTTTTCCGACCGGAGTCACCTAGTGCAG,9270 fluorescence intensity (a.u.)
27,AGGGATTTGTCCATGATTGTATACAACAGACTCTGTTTACCGGAGTCACCTAGTGCAG,11600 fluorescence intensity (a.u.)
